Results taken from PMC8664900.
No constants are given. Whether binding was seen depends on the method and setting. Binding seen in cells or lysates may run through a third protein. Some binding calls cover weakened binding; strength is not graded here. For some of these results: Tags and fused reporters may be left off the sequences shown.

T1: 2xProteinA-Atg11^1–454 (S. cerevisiae) (UniProt Q12527)
T1 sequence: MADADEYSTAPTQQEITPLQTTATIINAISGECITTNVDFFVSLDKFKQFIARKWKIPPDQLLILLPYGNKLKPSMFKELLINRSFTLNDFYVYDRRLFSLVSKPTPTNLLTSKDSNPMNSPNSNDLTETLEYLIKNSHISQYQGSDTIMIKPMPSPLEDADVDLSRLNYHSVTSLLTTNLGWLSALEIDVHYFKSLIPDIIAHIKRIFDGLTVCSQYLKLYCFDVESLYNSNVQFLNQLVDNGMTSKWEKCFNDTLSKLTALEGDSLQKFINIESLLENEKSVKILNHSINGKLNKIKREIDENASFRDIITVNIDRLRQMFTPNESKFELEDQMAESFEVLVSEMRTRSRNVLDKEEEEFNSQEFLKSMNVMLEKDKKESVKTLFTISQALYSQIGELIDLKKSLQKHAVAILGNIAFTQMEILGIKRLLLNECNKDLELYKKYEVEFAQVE

T2: 2xProteinA-Atg11^FL (S. cerevisiae) (UniProt Q12527)
T2 sequence: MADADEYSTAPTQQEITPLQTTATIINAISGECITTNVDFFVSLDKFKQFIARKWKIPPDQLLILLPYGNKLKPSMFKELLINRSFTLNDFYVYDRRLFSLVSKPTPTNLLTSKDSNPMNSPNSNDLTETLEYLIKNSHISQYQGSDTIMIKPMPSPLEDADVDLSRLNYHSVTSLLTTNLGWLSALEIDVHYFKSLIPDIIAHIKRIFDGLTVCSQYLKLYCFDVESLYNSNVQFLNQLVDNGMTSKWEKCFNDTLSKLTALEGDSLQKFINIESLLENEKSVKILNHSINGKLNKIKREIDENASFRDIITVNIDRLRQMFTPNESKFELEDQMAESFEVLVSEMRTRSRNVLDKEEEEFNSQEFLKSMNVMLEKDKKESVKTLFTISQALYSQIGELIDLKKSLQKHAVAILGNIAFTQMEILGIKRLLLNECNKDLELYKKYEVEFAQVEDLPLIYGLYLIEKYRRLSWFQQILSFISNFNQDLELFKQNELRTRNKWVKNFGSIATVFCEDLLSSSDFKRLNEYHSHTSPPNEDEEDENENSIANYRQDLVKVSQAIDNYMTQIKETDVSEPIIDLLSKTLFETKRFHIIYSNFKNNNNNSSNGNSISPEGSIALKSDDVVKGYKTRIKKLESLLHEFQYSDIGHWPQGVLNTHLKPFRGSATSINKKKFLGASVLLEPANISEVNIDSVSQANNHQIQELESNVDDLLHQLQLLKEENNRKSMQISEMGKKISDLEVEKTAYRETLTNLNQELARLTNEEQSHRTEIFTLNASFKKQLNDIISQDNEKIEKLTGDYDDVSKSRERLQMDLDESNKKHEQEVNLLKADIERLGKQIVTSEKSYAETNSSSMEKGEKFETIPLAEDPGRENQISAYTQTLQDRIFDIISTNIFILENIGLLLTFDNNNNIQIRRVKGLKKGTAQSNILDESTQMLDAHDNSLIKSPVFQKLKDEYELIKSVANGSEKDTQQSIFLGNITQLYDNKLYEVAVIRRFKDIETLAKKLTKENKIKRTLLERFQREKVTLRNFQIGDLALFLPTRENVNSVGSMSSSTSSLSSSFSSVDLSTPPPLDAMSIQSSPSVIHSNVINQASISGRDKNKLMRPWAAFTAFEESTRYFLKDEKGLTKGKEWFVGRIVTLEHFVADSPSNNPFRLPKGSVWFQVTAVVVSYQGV

T3: Vac8-GFP (S. cerevisiae) (UniProt P39968)
T3 sequence: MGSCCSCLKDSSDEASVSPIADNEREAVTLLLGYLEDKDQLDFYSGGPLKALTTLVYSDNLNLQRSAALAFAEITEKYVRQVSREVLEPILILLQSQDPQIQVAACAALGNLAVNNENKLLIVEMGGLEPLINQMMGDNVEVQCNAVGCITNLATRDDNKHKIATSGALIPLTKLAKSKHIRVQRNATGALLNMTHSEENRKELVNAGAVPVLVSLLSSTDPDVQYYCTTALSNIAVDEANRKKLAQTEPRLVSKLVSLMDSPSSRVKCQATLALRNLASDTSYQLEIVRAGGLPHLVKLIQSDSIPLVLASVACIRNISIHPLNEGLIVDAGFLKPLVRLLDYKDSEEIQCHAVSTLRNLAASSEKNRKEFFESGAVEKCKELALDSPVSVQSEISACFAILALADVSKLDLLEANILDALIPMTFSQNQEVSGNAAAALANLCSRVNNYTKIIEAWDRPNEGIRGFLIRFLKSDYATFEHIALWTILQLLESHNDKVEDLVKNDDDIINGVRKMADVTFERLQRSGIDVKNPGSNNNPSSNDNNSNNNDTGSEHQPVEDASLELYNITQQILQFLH

B1: Atg9 (protein, UniProt Q12142 1-997)
chain: MERDEYQLPNSHGKNTFLSRIFGLQSDEVNPSLNSQEMSNFPLPDIERGSSLLHSTNDSREDVDENDLRVPESDQGTSTEEEDEVDEEQVQAYAPQISDGLDGDHQLNSVTSKENVLETEKSNLERLVEGSTDDSVPKVGQLSSEEEEDNEFINNDGFDDDTPLFQKSKIHEFSSKKSNTIEDGKRPLFFRHILQNNRPQRDTQKLFTSSNAIHHDKDKSANNGPRNINGNQKHGTKYFGSATQPRFTGSPLNNTNRFTKLFPLRKPNLLSNISVLNNTPEDRINTLSVKERALWKWANVENLDIFLQDVYNYYLGNGFYCIILEKILNICTLLFVVFVSTYMGHCVDYSKLPTSHRVSDIIIDKCYSNSITGFTKFFLWMFYFFVILKIVQLYFDVQKLSELQNFYKYLLNISDDELQTLPWQNVIQQLMYLKDQNAMTANVVEVKAKNRIDAHDVANRIMRRENYLIALYNSDILNLSLPIPLFRTNVLTKTLEWNINLCVMGFVFNESGFIKQSILKPSQREFTREELQKRFMLAGFLNIILAPFLVTYFVLLYFFRYFNEYKTSPGSIGARQYTPIAEWKFREYNELYHIFKKRISLSTTLANKYVDQFPKEKTNLFLKFVSFICGSFVAILAFLTVFDPENFLNFEITSDRSVIFYITILGAIWSVSRNTITQEYHVFDPEETLKELYEYTHYLPKEWEGRYHKEEIKLEFCKLYNLRIVILLRELTSLMITPFVLWFSLPSSAGRIVDFFRENSEYVDGLGYVCKYAMFNMKNIDGEDTHSMDEDSLTKKIAVNGSHTLNSKRRSKFTAEDHSDKDLANNKMLQSYVYFMDDYSNSENLTGKYQLPAKKGYPNNEGDSFLNNKYSWRKQFQPGQKPELFRIGKHALGPGHNISPAIYSTRNPGKNWDNNNNGDDIKNGTNNATAKNDDNNGNNDHEYVLTESFLDSGAFPNHDVIDHNKMLNSNYNGNGILNKGGVLGLVKEYYKKSDVGR
B2: Atg17 (protein, UniProt Q06410 1-417)
chain: MNEADVTKFVNNARKTLTDAQLLCSSANLRIVDIKKKLSSWQLSISKLNFLIVGLRQQGKFLYTILKEGIGTKLIQKQWNQAVLVVLVDEMKYWQYEITSKVQRLDGIVNELSISEKDDTDPSKLGDYISRDNVNLLNDKLKEVPVIERQIENIKLQYENMVRKVNKELIDTKLTDVTQKFQSKFGIDNLMETNVAEQFSRELTDLEKDLAEIMNSLTQHFDKTLLLQDKKIDNDEREELFKVVQGDDKELYNIFKTLHEVIDDVDKTILNLGQFLQAKIKEKTELHSEVSEIINDFNRNLEYLLIFKDISNLIDSFKNSCTQDIQTTKELCEFYDNFEESYGNLVLEAKRRKDVANRMKTILKDCEKQLQNLDAQDQEERQNFIAENGTYLPETIWPGKIDDFSSLYTLNYNVKNP
B3: Atg19 (protein, UniProt P35193 1-415)
chain: MNNSKTNQQMNTSMGYPLTVYDECNKFQLIVPTLDANIMLWCIGQLSLLNDSNGCKHLFWQPNDKSNVRILLNNYDYGHLFKYLQCQRKCSVYIGEGTLKKYNLTISTSFDNFLDLTPSEEKESLCREDAHEDPVSPKAGSEEEISPNSTSNVVVSRECLDNFMKQLLKLEESLNKLELEQKVTNKEPNHRISGTIDIPEDRSELVNFFTELKTVKQLEDVFQRYHDYERLSQECDSKTEIASDHSKKETKIEVEPPNERSLQITMNQRDNSLYFQLFNNTNSVLAGNCKLKFTDAGDKPTTQIIDMGPHEIGIKEYKEYRYFPYALDLEAGSTIEIENQYGEVIFLGKYGSSPMINLRPPSRLSAESLQASQEPFYSFQIDTLPELDDSSIISTSISLSYDGDDNEKALTWEEL
B4: Atg29 (protein, UniProt Q12092 1-213)
chain: MIMNSTNTVVYIKVKGRRPQGFLDPPKFEWNGTKERQLWTMVSNLNYSQDQIDWQNLSKIFETPEFFLKKRTYKLFAEHLELLQLQLEKKRDLEKYSNDQVNEGMSDLIHKYTPTLQNDNLLNVSASPLTTERQDSEEVETEVTNEALQHLQTSKILNIHKKTSDSENKPNDKLDKDGINKEMECGSSDDDLSSSLSVSKSALEEALMDRLQF
B5: 2xProteinA-Atg11^FL (protein, UniProt Q12527 1-1178)
chain: T2 sequence
B6: 2xProteinA-Atg11^1–454 (domain or fragment, UniProt Q12527 1-454)
chain: T1 sequence

The binders below were run against T1, 2xProteinA-Atg11^1–454 (S. cerevisiae) (assay: co-IP; protein A immunoprecipitation with IgG-coupled Dynabeads M-270 Epoxy from freezer-milled yeast extract; RLB+ buffer, 1 h at 4 °C; western blot).

Binder	binding
B1	no binding
B2	no binding
B3	no binding
B4	no binding

These binders were tested against T2, 2xProteinA-Atg11^FL (S. cerevisiae) in the same assay as above.

Binder	binding
B1	binds
B2	binds
B3	binds
B4	binds

What follows are binders tested against T3, Vac8-GFP (S. cerevisiae) (assay: co-IP; GFP immunoprecipitation with magnetic GFP-Trap beads from yeast extracts made by glass bead lysis; RLB+ buffer (1x PBS pH 7.4, 10% glycerol, 0.5% Tween-20), 1 h at 4 °C; western blot with anti-GFP and anti-protein A; also in cells lacking Atg13 (Vac8-Atg11) and in vac8∆ cells (Vps15/Vps34-Atg14)).

Binder	binding
B5	binds
B6	binds
